Source: patent US20260069693A1, “UROLITHINS AND T-CELL MEDIATED IMMUNE RESPONSE” (priority 2022, published 2026)

Experiments:
[1] = tested on: AOM-induced colon tumors; assay: azoxymethane (AOM)-induced tumorigenesis, UA containing diet; assay type: in vivo, FVB mice; details: UA containing diet (2.28 g/kg) vs control diet
Text: Colorectal tumors were induced by 6 consecutive weekly injections of AOM on mice fed with food containing 2.28 g/kg Urolithin A (UA diet) or with control food. The diet was introduced one-week prior the first AOM injection and maintained until the end of the experiment at ˜20-24 weeks. The colons were collected for subsequent histological analysis as described below.
For histological analysis of colon tissue, colons were paraffin embedded using the “swiss roll” technique and serially sectioned at 200 μm. After deparaffinization and rehydration of the tissue, haematoxylin and eosin (H&E) staining and α-CD3 (IS503: DAKO) was performed using a Leica Bond Max following standard immunochemistry staining protocols. Stained sections were scanned using Aperio CS2 (Leica). AOM tumor lesion size and incidence were quantified using Aperio ImageScope software.

[2] = tested on: APTK-s.c. tumors; assay: subcutaneous APTK tumors, UA-supplemented diet; assay type: in vivo, C57BL/6 mice; details: CD8+ T cell depleting antibodies; control and UA-fed cohorts

O=c1oc2cc(O)ccc2c2ccc(O)cc12 [UA, Urolithin A]
infiltration of CD3+ T cells into the colonic mucosa [1]: increased infiltration
tumor incidence ([1]; 18 weeks): significant decrease
tumor size ([1]; 18 weeks): significant decrease
tumor growth upon depletion of CD8+ T cells [2]: exacerbated tumor growth in both control and UA-fed cohorts
